Reference: the supplement of paper PMC10369915
The other results are listed elsewhere or left out. Cut-off read from the data, not from the text of the source: active = 3.2 or more and inactive = the rest. Only a few entries rise above the background.

Experiments:
Assay in all cases: enrichment score (SH2-bound / input frequency) (ratio); bacterial display of known human phosphotyrosine sites (pTyr-Var adds point mutants) read by sequencing; higher = stronger binding; tyrosines were phosphorylated by kinases first
Conditions in all cases: peptide library: pTyr-Var
SHP2 C-SH2 domain E139D = target: SHP2 C-SH2 domain E139D
[1] = target: SHP2 C-SH2 domain wild-type
SHP2 N-SH2 domain L43F = target: SHP2 N-SH2 domain L43F
SHP2 N-SH2 domain T42A = target: SHP2 N-SH2 domain T42A
SHP2 N-SH2 domain T52S = target: SHP2 N-SH2 domain T52S
[2] = target: SHP2 N-SH2 domain wild-type

Measured: enrichment score
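Note: displayed peptides selected on beads carrying the immobilized SH2 domain, with library peptides lacking any tyrosine serving as negative controls.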

VASSLYDILAR [GLB1_Y294]
inactive: SHP2 C-SH2 domain E139D 1.46 | [1] 1.11 | SHP2 N-SH2 domain L43F 1.15 | SHP2 N-SH2 domain T42A 0.704 | SHP2 N-SH2 domain T52S 1.12 | [2] 1.23

TIWDSYTTNKV [GNB1_Y85_I80T]
inactive: SHP2 C-SH2 domain E139D 1.34 | [1] 1.02 | SHP2 N-SH2 domain L43F 1.03 | SHP2 N-SH2 domain T42A 0.889 | SHP2 N-SH2 domain T52S 1.13 | [2] 0.951

ILNANCMAKRL [GLDC_Y839_Y839C]
inactive: SHP2 C-SH2 domain E139D 0.781 | [1] 0.535 | SHP2 N-SH2 domain L43F 0.765 | SHP2 N-SH2 domain T42A 0.746 | SHP2 N-SH2 domain T52S 0.553 | [2] 0.678

GDAMLYYPSVS [GPR143_Y177_A173D]
inactive: SHP2 C-SH2 domain E139D 0.59 | [1] 0.593 | SHP2 N-SH2 domain L43F 0.771 | SHP2 N-SH2 domain T42A 0.576 | SHP2 N-SH2 domain T52S 0.613 | [2] 0.71

MHRRQYELLGG [GNAS_Y391_L388R]
inactive: SHP2 C-SH2 domain E139D 0.649 | [1] 0.44 | SHP2 N-SH2 domain L43F 0.723 | SHP2 N-SH2 domain T42A 0.588 | SHP2 N-SH2 domain T52S 0.72 | [2] 0.591

VKYGAYINDFK [GLB1_Y488_N484K]
inactive: SHP2 C-SH2 domain E139D 1.01 | [1] 1.1 | SHP2 N-SH2 domain L43F 0.985 | SHP2 N-SH2 domain T42A 1.55 | SHP2 N-SH2 domain T52S 0.975 | [2] 0.937

CNRADYSKLAS [GNE_Y22_P27S]
inactive: SHP2 C-SH2 domain E139D 0.558 | [1] 0.906 | SHP2 N-SH2 domain L43F 0.796 | SHP2 N-SH2 domain T42A 0.947 | SHP2 N-SH2 domain T52S 0.603 | [2] 0.924

GRQGIYTKNER [GPR143_Y231_E233K]
inactive: SHP2 C-SH2 domain E139D 0.872 | [1] 0.611 | SHP2 N-SH2 domain L43F 0.791 | SHP2 N-SH2 domain T42A 0.725 | SHP2 N-SH2 domain T52S 0.658 | [2] 0.679

GRQGIYTENER [GPR143_Y231]
inactive: SHP2 C-SH2 domain E139D 0.606 | [1] 0.722 | SHP2 N-SH2 domain L43F 0.643 | SHP2 N-SH2 domain T42A 0.488 | SHP2 N-SH2 domain T52S 0.667 | [2] 0.662

MGCVNYGAFIN [GLB1_Y485_R482C_YF]
inactive: SHP2 C-SH2 domain E139D 0.84 | [1] 1.08 | SHP2 N-SH2 domain L43F 0.989 | SHP2 N-SH2 domain T42A 0.69 | SHP2 N-SH2 domain T52S 0.823 | [2] 1.31

GKVADYIPQLP [GLS_Y249_A254P]
inactive: SHP2 C-SH2 domain E139D 0.994 | [1] 0.863 | SHP2 N-SH2 domain L43F 0.877 | SHP2 N-SH2 domain T42A 0.829 | SHP2 N-SH2 domain T52S 0.907 | [2] 1.09

MGRVKYGAYIN [GLB1_Y485_N484K]
inactive: SHP2 C-SH2 domain E139D 2.07 | [1] 2.04 | SHP2 N-SH2 domain L43F 2.05 | SHP2 N-SH2 domain T42A 1.75 | SHP2 N-SH2 domain T52S 1.69 | [2] 2

VNYGAYINYFK [GLB1_Y488_D491Y]
inactive: SHP2 C-SH2 domain E139D 1.81 | [1] 1.96 | SHP2 N-SH2 domain L43F 1.14 | SHP2 N-SH2 domain T42A 2.17 | SHP2 N-SH2 domain T52S 1.57 | [2] 1.63

NTILLYHIMAW [GPR143_Y157_S152N]
inactive: SHP2 C-SH2 domain E139D 1.86 | [1] 2.37 | SHP2 N-SH2 domain L43F 2.12 | SHP2 N-SH2 domain T42A 1.66 | SHP2 N-SH2 domain T52S 1.93 | [2] 1.91

EPSVPYRGMVF [GLI3_Y104_T107M]
inactive: SHP2 C-SH2 domain E139D 0.562 | [1] 0.744 | SHP2 N-SH2 domain L43F 0.714 | SHP2 N-SH2 domain T42A 0.54 | SHP2 N-SH2 domain T52S 0.575 | [2] 0.621

LNLKDYNLVGG [GNAQ_Y356_E355D]
inactive: SHP2 C-SH2 domain E139D 0.794 | [1] 0.654 | SHP2 N-SH2 domain L43F 0.775 | SHP2 N-SH2 domain T42A 0.856 | SHP2 N-SH2 domain T52S 0.751 | [2] 0.702

CNRADYSKLAP [GNE_Y22]
inactive: SHP2 C-SH2 domain E139D 0.766 | [1] 0.982 | SHP2 N-SH2 domain L43F 0.694 | SHP2 N-SH2 domain T42A 0.874 | SHP2 N-SH2 domain T52S 0.892 | [2] 1.12

KYWREYILSLE [GPC3_Y299]
active: SHP2 C-SH2 domain E139D 3.49 | [1] 3.25
inactive: SHP2 N-SH2 domain L43F 3.19 | SHP2 N-SH2 domain T42A 2.92 | SHP2 N-SH2 domain T52S 3.04 | [2] 2.87

IVWDSYTTNKV [GNB3_Y85]
inactive: SHP2 C-SH2 domain E139D 1.14 | [1] 1.14 | SHP2 N-SH2 domain L43F 1.13 | SHP2 N-SH2 domain T42A 1.05 | SHP2 N-SH2 domain T52S 0.959 | [2] 1.42
